Source: article PMC9911399, “Two distinct binding modes provide the RNA-binding protein RbFox with extraordinary sequence specificity”
Numbering of substitutions follows the chain as printed; changes in the protein carry UniProt numbers. This is one part of the list.

T1: RBFOX1 RRM (Homo sapiens, UniProt Q9NWB1 109-208)
T1 sequence: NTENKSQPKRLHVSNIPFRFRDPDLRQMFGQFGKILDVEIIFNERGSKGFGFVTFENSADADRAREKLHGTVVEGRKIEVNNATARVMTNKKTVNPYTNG

B1: CCACAAU (DNA:RNA)
RNA: GGGAGACCGGAAUUCAGAUUGUCCCCACAAUUUAAAUCCCGUCGUAGCCACCA
DNA 1: CAATCTGAATTCCGGTCTCCC
DNA 2: TGGTGGCTACGACGGGATT
B2: UGACCAU (DNA:RNA)
RNA: B1 RNA with C25U, C26G, A29C
DNA 1: CAATCTGAATTCCGGTCTCCC
DNA 2: TGGTGGCTACGACGGGATT
B3: CGAUGCA (DNA:RNA)
RNA: B1 RNA with C26G, C28U, A29G, A30C, U31A
DNA 1: CAATCTGAATTCCGGTCTCCC
DNA 2: TGGTGGCTACGACGGGATT
B4: UUUCAAA (DNA:RNA)
RNA: B1 RNA with C25U, C26U, A27U, U31A
DNA 1: CAATCTGAATTCCGGTCTCCC
DNA 2: TGGTGGCTACGACGGGATT
B5: GACAUUG (DNA:RNA)
RNA: GGGAGACCGGAAUUCAGAUUGUCCGACAUUGUUAAAUCCCGUCGUAGCCACCA
DNA 1: CAATCTGAATTCCGGTCTCCC
DNA 2: TGGTGGCTACGACGGGATT
B6: CCAUUCC (DNA:RNA)
RNA: B1 RNA with C28U, A29U, A30C, U31C
DNA 1: CAATCTGAATTCCGGTCTCCC
DNA 2: TGGTGGCTACGACGGGATT
B7: UAGUGAA (DNA:RNA)
RNA: B1 RNA with C25U, C26A, A27G, C28U, A29G, U31A
DNA 1: CAATCTGAATTCCGGTCTCCC
DNA 2: TGGTGGCTACGACGGGATT
B8: ACCUAUA (DNA:RNA)
RNA: B1 RNA with C25A, A27C, C28U, A30U, U31A
DNA 1: CAATCTGAATTCCGGTCTCCC
DNA 2: TGGTGGCTACGACGGGATT
B9: GACUGUC (DNA:RNA)
RNA: B5 RNA with A28U, U29G, G31C
DNA 1: CAATCTGAATTCCGGTCTCCC
DNA 2: TGGTGGCTACGACGGGATT
B10: UAUUGUU (DNA:RNA)
RNA: B5 RNA with G25U, C27U, A28U, U29G, G31U
DNA 1: CAATCTGAATTCCGGTCTCCC
DNA 2: TGGTGGCTACGACGGGATT
B11: AAUGGCC (DNA:RNA)
RNA: B5 RNA with G25A, C27U, A28G, U29G, U30C, G31C
DNA 1: CAATCTGAATTCCGGTCTCCC
DNA 2: TGGTGGCTACGACGGGATT
B12: UUGGCCC (DNA:RNA)
RNA: GGGAGACCGGAAUUCAGAUUGUCCUUGGCCCUUAAAUCCCGUCGUAGCCACCA
DNA 1: CAATCTGAATTCCGGTCTCCC
DNA 2: TGGTGGCTACGACGGGATT
B13: UACAUCG (DNA:RNA)
RNA: B5 RNA with G25U, U30C
DNA 1: CAATCTGAATTCCGGTCTCCC
DNA 2: TGGTGGCTACGACGGGATT
B14: CAUCAAU (DNA:RNA)
RNA: B1 RNA with C26A, A27U
DNA 1: CAATCTGAATTCCGGTCTCCC
DNA 2: TGGTGGCTACGACGGGATT
B15: AGCCAAA (DNA:RNA)
RNA: B1 RNA with C25A, C26G, A27C, U31A
DNA 1: CAATCTGAATTCCGGTCTCCC
DNA 2: TGGTGGCTACGACGGGATT
B16: UGCAUUU (DNA:RNA)
RNA: B5 RNA with G25U, A26G, G31U
DNA 1: CAATCTGAATTCCGGTCTCCC
DNA 2: TGGTGGCTACGACGGGATT
B17: CAGUGUA (DNA:RNA)
RNA: B5 RNA with G25C, C27G, A28U, U29G, G31A
DNA 1: CAATCTGAATTCCGGTCTCCC
DNA 2: TGGTGGCTACGACGGGATT
B18: GCAGCGC (DNA:RNA)
RNA: B12 RNA with U25G, U26C, G27A, C30G
DNA 1: CAATCTGAATTCCGGTCTCCC
DNA 2: TGGTGGCTACGACGGGATT
B19: GUUUCGC (DNA:RNA)
RNA: B12 RNA with U25G, G27U, G28U, C30G
DNA 1: CAATCTGAATTCCGGTCTCCC
DNA 2: TGGTGGCTACGACGGGATT
B20: UUGCACG (DNA:RNA)
RNA: B12 RNA with G28C, C29A, C31G
DNA 1: CAATCTGAATTCCGGTCTCCC
DNA 2: TGGTGGCTACGACGGGATT
B21: GAAUGCC (DNA:RNA)
RNA: B5 RNA with C27A, A28U, U29G, U30C, G31C
DNA 1: CAATCTGAATTCCGGTCTCCC
DNA 2: TGGTGGCTACGACGGGATT
B22: CUUUCUA (DNA:RNA)
RNA: B12 RNA with U25C, G27U, G28U, C30U, C31A
DNA 1: CAATCTGAATTCCGGTCTCCC
DNA 2: TGGTGGCTACGACGGGATT
B23: UGUCCGG (DNA:RNA)
RNA: B12 RNA with U26G, G27U, G28C, C30G, C31G
DNA 1: CAATCTGAATTCCGGTCTCCC
DNA 2: TGGTGGCTACGACGGGATT
B24: AUUACCA (DNA:RNA)
RNA: B12 RNA with U25A, G27U, G28A, C31A
DNA 1: CAATCTGAATTCCGGTCTCCC
DNA 2: TGGTGGCTACGACGGGATT
B25: AAAUUCA (DNA:RNA)
RNA: B5 RNA with G25A, C27A, A28U, U30C, G31A
DNA 1: CAATCTGAATTCCGGTCTCCC
DNA 2: TGGTGGCTACGACGGGATT
B26: AUGUGGC (DNA:RNA)
RNA: B12 RNA with U25A, G28U, C29G, C30G
DNA 1: CAATCTGAATTCCGGTCTCCC
DNA 2: TGGTGGCTACGACGGGATT
B27: GAAAUCG (DNA:RNA)
RNA: B5 RNA with C27A, U30C
DNA 1: CAATCTGAATTCCGGTCTCCC
DNA 2: TGGTGGCTACGACGGGATT
B28: ACGAUGA (DNA:RNA)
RNA: B5 RNA with G25A, A26C, C27G, U30G, G31A
DNA 1: CAATCTGAATTCCGGTCTCCC
DNA 2: TGGTGGCTACGACGGGATT
B29: UUUCGGU (DNA:RNA)
RNA: B1 RNA with C25U, C26U, A27U, A29G, A30G
DNA 1: CAATCTGAATTCCGGTCTCCC
DNA 2: TGGTGGCTACGACGGGATT
B30: CGCGUCA (DNA:RNA)
RNA: B5 RNA with G25C, A26G, A28G, U30C, G31A
DNA 1: CAATCTGAATTCCGGTCTCCC
DNA 2: TGGTGGCTACGACGGGATT
B31: GCAGAGC (DNA:RNA)
RNA: B1 RNA with C25G, C28G, A30G, U31C
DNA 1: CAATCTGAATTCCGGTCTCCC
DNA 2: TGGTGGCTACGACGGGATT

target: T1, RBFOX1 RRM; test: EMSA; HiTS-Eq, 1 nM pool, 10 min; buffer printed only for the single-RNA assays: 10 mM Tris pH 7.5, 150 mM NaCl, 3.4 mM EDTA, 0.001% NP-40, 30 C; details: tags: His6 N-terminal (pET28a); label: 5' 32P
How it was run: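 A pool of RNA with 7 randomized nucleotides, 5′-radiolabelled and with DNA-annealed flanks, was equilibrated at 1 nM for 10 min in 50 µL with purified RbFox RRM, wild type or mutant, across increasing protein concentrations. Free RNA was separated by 8% native PAGE, excised, reverse-transcribed, barcoded by PCR and sequenced. Relative association constants were obtained from read-count changes of each RNA species versus the control reaction and normalised to the cognate motif.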

Binder	binding signal
B1	0.00191 KA relative to UGCAUGU
B2	0.00768 KA relative to UGCAUGU
B3	0.0226 KA relative to UGCAUGU
B4	0.00521 KA relative to UGCAUGU
B5	0.0146 KA relative to UGCAUGU
B6	0.00241 KA relative to UGCAUGU
B7	0.00606 KA relative to UGCAUGU
B8	0.00108 KA relative to UGCAUGU
B9	0.0241 KA relative to UGCAUGU
B10	0.0159 KA relative to UGCAUGU
B11	0.0138 KA relative to UGCAUGU
B12	0.0162 KA relative to UGCAUGU
B13	0.00745 KA relative to UGCAUGU
B14	0.000929 KA relative to UGCAUGU
B15	0.000856 KA relative to UGCAUGU
B16	0.0179 KA relative to UGCAUGU

Binder	binding signal
B17	0.00759 KA relative to UGCAUGU
B18	0.0165 KA relative to UGCAUGU
B19	0.0197 KA relative to UGCAUGU
B20	0.692 KA relative to UGCAUGU
B21	0.0227 KA relative to UGCAUGU
B22	0.00848 KA relative to UGCAUGU
B23	0.00998 KA relative to UGCAUGU
B24	0.00219 KA relative to UGCAUGU
B25	0.000334 KA relative to UGCAUGU
B26	0.0111 KA relative to UGCAUGU
B27	0.00822 KA relative to UGCAUGU
B28	0.00971 KA relative to UGCAUGU
B29	0.014 KA relative to UGCAUGU
B30	0.00633 KA relative to UGCAUGU
B31	0.0144 KA relative to UGCAUGU
